Assay results published in article PMC7819943, “Rice protein-binding microarrays: a tool to detect cis-acting elements near promoter regions in rice”.
Some of the results follow.

Each sequence was assayed against T1, OsWOX13 (Oryza sativa, UniProt Q5QMM3 1-267) (assay: protein-binding microarray (RPBM); PBS, 2% BSA, 51.3 ng/ul salmon testes DNA, 50 uM zinc acetate, 200 nM TF, 25 C, 1 h; high values mean tight binding). Details: protein: recombinant; tags: N-terminal polyhistidine and DsRed monomer fusion (pET32a); label: CyDye5-dUTP incorporated in the synthesized complementary strand; 3' TTTTT single-stranded linker to array surface; dsDNA, one strand shown.
T1 sequence: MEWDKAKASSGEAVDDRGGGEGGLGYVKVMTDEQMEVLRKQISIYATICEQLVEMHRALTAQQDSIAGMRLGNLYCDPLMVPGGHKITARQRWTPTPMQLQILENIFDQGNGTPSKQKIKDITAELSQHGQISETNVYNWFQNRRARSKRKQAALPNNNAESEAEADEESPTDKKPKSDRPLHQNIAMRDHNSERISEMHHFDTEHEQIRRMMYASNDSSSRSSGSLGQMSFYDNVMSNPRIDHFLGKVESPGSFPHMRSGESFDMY
Outline: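 The binding signal is fluorescence intensity per array feature (arbitrary units). Readings came from an Axon 4000B scanner after a washed, 2% BSA-blocked, double-stranded custom Agilent array had been incubated for 1 h at 25 °C with 200 nM protein and 50 µM zinc acetate. The protein was a Ni–NTA-purified transcription factor fused N-terminally to polyhistidine and DsRed, expressed in E. coli BL21-CodonPlus.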

| Sequence | binding signal |
| --- | --- |
| ACAACCACAAAATTGACACTACGCGACAGTGATGAAACTGCGGAGTCACCTAGTGCAG | 6600 fluorescence intensity (a.u.) |
| GAGCTCAGATTTATAGCTAATTGTAGGTGATATACCCGTCCGGAGTCACCTAGTGCAG | 9550 fluorescence intensity (a.u.) |
| AACCCCGATTGAAAACAAACAAACAAACATGACATCGGCTCGGAGTCACCTAGTGCAG | 16100 fluorescence intensity (a.u.) |
| TTTGATAGGATTTCTTATGTATTTATCAAAGTTTGGTGAACGGAGTCACCTAGTGCAG | 22400 fluorescence intensity (a.u.) |
| CTTTTACTACTGATGATGAATTTACAGTGACTTCTTGTCGCGGAGTCACCTAGTGCAG | 3400 fluorescence intensity (a.u.) |
| CCTCCTCATCATGGCTTAATTAATTAATACTCCTAGCTGCCGGAGTCACCTAGTGCAG | 29000 fluorescence intensity (a.u.) |
| TTTGATTGGTTGCAAGAATGGGATTAAAAGAATATTTTAGCGGAGTCACCTAGTGCAG | 37200 fluorescence intensity (a.u.) |
| TTTTACTTTTGATTGTAACGCGTTTTGGTTTAATTAGTACCGGAGTCACCTAGTGCAG | 8160 fluorescence intensity (a.u.) |
| TCAAGATTACACTATGTAAATTATAATTTGTCTCCCCTTTCGGAGTCACCTAGTGCAG | 17200 fluorescence intensity (a.u.) |
| TGTGAATGTTGTGATTGAGGTGGTATCAGTATCATATCCGCGGAGTCACCTAGTGCAG | 27000 fluorescence intensity (a.u.) |
| TTCGGCCGAACGGCAACATCGTCGGCTCACACACGCATCGCGGAGTCACCTAGTGCAG | 35300 fluorescence intensity (a.u.) |
| ATTAATTTATTATATCAATTTGTCTTGAAATTTTATCATACGGAGTCACCTAGTGCAG | 19700 fluorescence intensity (a.u.) |
| TGTTAATGATATGTGTTTAGATTCATTAACATCTGTATGTCGGAGTCACCTAGTGCAG | 12700 fluorescence intensity (a.u.) |
| ACTAAATTTATCACATCACCAAAAGTTCTGGTGAACATCACGGAGTCACCTAGTGCAG | 26100 fluorescence intensity (a.u.) |
| GGTCCAATGATATGGTCAAATTGGTAGTTAGCTTTCAAACCGGAGTCACCTAGTGCAG | 8860 fluorescence intensity (a.u.) |
| AATGGTAAATTATTAAGCGCAAACTTAAGAGAGGTATTTGCGGAGTCACCTAGTGCAG | 3960 fluorescence intensity (a.u.) |
| ACAATATATAATTACAATGTAGTTAAACTACAGTTATATCCGGAGTCACCTAGTGCAG | 4350 fluorescence intensity (a.u.) |
| CTTTCAGTGATAGACGACGTACTCATCGACAACGAGACATCGGAGTCACCTAGTGCAG | 10300 fluorescence intensity (a.u.) |
| AACTAGAATTGAATGTGTGATTCTCTGTATAGAATAGATGCGGAGTCACCTAGTGCAG | 5800 fluorescence intensity (a.u.) |
| AATGATTTTGGTAGCTTTGGGATATATCATGTCATAAGGACGGAGTCACCTAGTGCAG | 7360 fluorescence intensity (a.u.) |
| CAAGATTTGATATGATTATATTATGATAAAATACATGTATCGGAGTCACCTAGTGCAG | 23400 fluorescence intensity (a.u.) |

| Sequence | binding signal |
| --- | --- |
| CCCTGATAAACTATTAACTTGCACTGATTTTATTAGTCGGCGGAGTCACCTAGTGCAG | 26100 fluorescence intensity (a.u.) |
| ATTGATAAATTGCTAAGCCAATGAAGATAAAACTATGTATCGGAGTCACCTAGTGCAG | 16400 fluorescence intensity (a.u.) |
| ATATTGATGTTAATGAATCTAGACATATATATCTATTTAGCGGAGTCACCTAGTGCAG | 7130 fluorescence intensity (a.u.) |
| TAAAATAATTTGGTTATATTTGTAATCTCTATATACCCAACGGAGTCACCTAGTGCAG | 6210 fluorescence intensity (a.u.) |
| AGTTGATTGGCACTGGCACACGGCATGTGTTCGCTCGAACCGGAGTCACCTAGTGCAG | 42100 fluorescence intensity (a.u.) |
| ATGTTAACTGAAAGTTGAGCTGCAAAACATAATAATTTGCCGGAGTCACCTAGTGCAG | 6980 fluorescence intensity (a.u.) |
| TCGCTAATAAATCATATGATGTCATGGGCCCGAGACATCTCGGAGTCACCTAGTGCAG | 3380 fluorescence intensity (a.u.) |
| TAGTTAATTGTTGTTGCCACACTCAAGCTAGCTAGGTGTACGGAGTCACCTAGTGCAG | 28700 fluorescence intensity (a.u.) |
| TGAAAATTGCACTTGATTTCCTCAATAATTGCAGATGCTACGGAGTCACCTAGTGCAG | 41800 fluorescence intensity (a.u.) |
| GTCTGATCTAATCTAAACGGGCCTATAAAATGACGGCAGCCGGAGTCACCTAGTGCAG | 6020 fluorescence intensity (a.u.) |
| TAATTAAATACAAACTAATTGACCTCACGGGATTAAATTCCGGAGTCACCTAGTGCAG | 11900 fluorescence intensity (a.u.) |
| CATTAGATTAGTTTGCTATACTTGCTACTACTAGTACAATCGGAGTCACCTAGTGCAG | 22000 fluorescence intensity (a.u.) |
| TGTCATGTTGCTAATTTAAATTCTGCGCACGATAGCCTCTCGGAGTCACCTAGTGCAG | 3430 fluorescence intensity (a.u.) |
| AGAACTAAACTAATTTATGTGAAATTCCTGCCTATTTTGACGGAGTCACCTAGTGCAG | 7390 fluorescence intensity (a.u.) |
| GATATACTGTGATTTGAACCTGTTCCAGCTCTGAGGAAAACGGAGTCACCTAGTGCAG | 8830 fluorescence intensity (a.u.) |
| CTAAATTATACGGAGATGATAATGTAGTTACAGTGCAGTTCGGAGTCACCTAGTGCAG | 21900 fluorescence intensity (a.u.) |
| AAAATAAACACATTATTAATTTGTCTTACAAAATAGTACTCGGAGTCACCTAGTGCAG | 18900 fluorescence intensity (a.u.) |
| ATAATGATATAAATATATTTAGTAATAGTGAATTATGGGCCGGAGTCACCTAGTGCAG | 9340 fluorescence intensity (a.u.) |
| TTAATAGACAATGACTAATGAAATGCCTTCCTAAAAGCCCCGGAGTCACCTAGTGCAG | 11600 fluorescence intensity (a.u.) |
| AAAATACTTAAAATTATGTCATAATTATTAAAATATCTGACGGAGTCACCTAGTGCAG | 4900 fluorescence intensity (a.u.) |
| TCTCCCATTGATTTGCAGCTTGTTGTCAAAATGTGCTTGTCGGAGTCACCTAGTGCAG | 14900 fluorescence intensity (a.u.) |
